Marks after values point to notes of the source that are not given here.
Experiments:
[1] = tested on: EBC-1 (human lung squamous cell carcinoma) xenograft; assay: EBC-1 xenograft tumor growth inhibition; assay type: in vivo; details: 10 mg/kg/day IP QDx1, SCID-bg mice
[2] = tested on: NCI-H146 (human small cell lung cancer) xenograft; assay: NCI-H146 xenograft tumor growth inhibition; assay type: in vivo, mice; details: 10 mg/kg/day QDx1 IP, N 8
Procedure: The in vivo anti-tumor efficacy of selected humanized anti-CD98 mAb conjugates were tested in NCI-H146 (human small cell lung cancer) xenograft model, as described in Example 6. Tumor growth inhibition was reported as TGImax in Table 28.

Molecule	Growth Inhibition TGD (%) [1]	Growth Inhibition TGImax (%) [1]	Response Frequency CR (%) [1]	Response Frequency OR (%) [1]	Response Frequency PR (%) [1]	TGImax (%) [2]
ChAb4-CZ (conjugate) VH: EVKLVESGGGLVQPGGSLRLSCTTSGFTFTDYYMSWVRQPPGKALEWLGFIRNKATIYTTEYSASVKGRFTISRDNSQSILYLQMNTLRAEDSATYYCARASYGNSEGWFAYWGQGTLVTVSA VL: DIVMSQSPSSLAVSVGEKVTMS[about 80 residues omitted here]FGGGTKLEIK	37* %	63* %	0%	0%	0%	–
CD98 (CL-huAb102)-XW (conjugate) heavy: EVQLVESGGGLVQPGGSLRLSCATSGFTFIDYYMSWVRQAPGKGLEWLGFIRNKANRYTTEYSASVKGRFTISRDNSKSILYLQMNSLKTEDTAVYYCTRDRPAWFVYWGQGTLVTVSSASTKGPSVFPLAPSSKSTSGGTAALGCLVKDYFPEPVTVSWNSGALTSGVHTFPAVLQSSGLYSLSSVVTVPSSSLGTQTYICNVNHKPSNTKVDKKV[human IgG1 Fc with changes omitted here] light: DIVMTQTPLSLPVTPGEPASISCKSSQSLLYSSNQKNYLAWYLQKPGQSPQLLIYWASTRESGVPDRFSGSGSGTDFTLKISRVEAEDVGVYYCQQYYSYPYTFGGGTKVEIKRTVAAPSVFIFPPSDEQLKSGTASVVCLLNNFYPREAKVQWKVDNALQSGNSQESVTEQDSKDSTYSLSSTLTLSKADYEKHKVYACEVTHQGLSSPVTKSFNRGEC	–	–	–	–	–	55%

From patent publication US20230135723A1, “ANTI-CD98 ANTIBODIES AND ANTIBODY DRUG CONJUGATES” (AbbVie Inc., priority 2016, published 2023)
